# Assay results as given in the supplement of paper PMC11417369.
# Some of the results follow.
# System: PF3D7_0420300 AP2 domain 1 (GST-tagged)
# Experiment: gcPBM binding intensity (ln(normalized median fluorescence intensity)); higher = stronger DNA binding
# Procedure, shortened: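 Plasmodium falciparum DNA-binding domains carrying a GST tag were expressed in E. coli and applied for 1 h, at about 25 μg on average, to an Agilent 4 × 180k array. The array held primer-extended double-stranded 36-bp intergenic genomic probes together with negative controls, and binding took place in 1× PBS with 1% milk, 0.2 mg/ml BSA, 0.5% salmon testes DNA and 0.03% Triton X-100. An Alexa488 anti-GST antibody detected bound protein, and the array was scanned at 488 nm. Binding intensity is taken as the highest Masliner-normalised natural-log median intensity across replicate spots of either probe orientation.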
row,Sequence,gcPBM binding intensity (ln)
1,AAAAAAAAAAAAAACATACACACAAATATATACATA [CACACA_site4010],9.67
2,ATATATATATATATATGTACATATATATATGTATAT [XGTACX_site3959],9.17
3,ATATTATTTTAAAGTACACACATATATTAATATATA [CACACA_site2315],9.39
4,TATACATACAGACCCACACACAAAAAAAAAAAAAAA [CACACA_site6536],9.38
5,ATATCTTATGTTATCACACACACACGCACAAAACAG [CACACA_site6800],10.2
6,TGTATTTATAAACATGCACACGTGGTTGTATTTATA [CACACA_site5762],9.45
7,ATTTTTTTTATTTTTTATATAATTTTTTTATATTAT [CACACA_negctrl_site1521],9.38
8,ATTTGTTTACCTAAAAGTACAAATTTTTTATGTATA [XGTACX_site7689],9.11
9,TGTTTTGTTTTTTGGGGTACATGTTTTGTATTATAT [XGTACX_site7997],9.89
10,TATCCCTTAGAATACACACCCATATGAGTGTGAACT [CACACA_site7398],9.3
11,AAATGAAAGAATTAAAGTACATTTATATAATTTTAA [XGTACX_site3540],9.1
12,AAGAGAAAAACATACACACACAACAAAATATGTATA [CACACA_site2719],10
13,TAATAATAATTATATACACACATGTATATTATATTT [CACACA_site1501],9.38
14,ATTTAAATATATTATTGTACATATACCTAATAAGAA [XGTACX_site6655],9.19
15,ACTCCTATATAAATGAACCATATTCATAATATATAT [CACACA_negctrl_site1636],9.25
16,AATAATACAAAAGTTCAACAAAAAAAAAAAAAAAAT [CACACA_negctrl_site952],9.51
17,CTTTATAATATTTGTTGTACACAAATATAACATATT [XGTACX_site709],9.31
18,AATATATTTATAAGCACACACTAATAAACACAGACA [CACACA_site4377],9.87
19,AAATATATATATATATATATATATGTGTGTGTATAT [GTGCAC_negctrl_site1],9.54
20,GTACATAATTATTATGCACACATATTTTTATGTATT [CACACA_site8132],9.49
21,TGTATAATATATATATGTACTTATGTATAATATTAT [XGTACX_site4328],9.26
22,AAGATATCTAAGGAAATTAAACTACCAAAATATATA [TGCATGCA_negctrl_site338],9.27
23,TGCATAAAAGTAAAAACATGCATGCCGTGGTATCTT [TGCATGCA_site664],9.22
24,TTTTTATGGATATTTATATTATATTATGATTAAAAA [TGCATGCA_negctrl_site204],8.85
